Consider 79 sequences from the supplement of paper PMC10126150.

Values marked as one replicate rest on one cluster of the flow cell; about a third of the high ones do not repeat.
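Further: ATP exposure 15 min at 22 °C before imaging.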

The test system of the series is ATP. Description: switch fluorescence ratio, 500 uM ATP over buffer (Cy3 cluster intensity, sum of 5 cycles each) (fold (ratio)); higher = stronger signal-on switching upon ATP binding; sequences stand for … in TCGTCGGCAGCGTCAGATGTGTATAAGAGACAGTTTTTTTTTTTTTTTTTTTTTTTTT…TC. To be noted: aptamer strand: ATP DNA aptamer (quencher-CACCTGGGGGAGTATTGCGGAGGAAGG + anchor), 100 nM annealed; ATP concentration: 500 uM; one replicate. In short, it runs like this: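 Five buffer/ATP imaging cycles were run on Cy3-labelled switching-strand clusters on a modified Illumina MiSeq flow-cell, with NaOH stripping and re-annealing between cycles. In each cycle, clusters annealed to 100 nM quencher-labelled ATP aptamer were imaged in selection buffer, then after 15 min with 500 uM ATP at 22 °C. Per cluster, the fluorescence ratio is summed target-cycle over summed buffer-cycle Cy3 intensity, averaged per switch-domain sequence. Only clusters within 100-1000 RFU were kept.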
In the case of ATCTGGAGAT, the switch fluorescence ratio is 0.981. TCCCATATGC: the switch fluorescence ratio came to 2.09. The value for GCGTTTGTTA was 1.04; that for ATTACTCATA was 1.09. Take CCGTGGCACG: the switch fluorescence ratio was 1.03. The figure for GTACCCTTTT is 1; for TCCATCGAGG it is 1. The value for CCTCGTCTAT was 3.24; that for AAGCTTGTCT was 1.06. The value for TGTATCACTG was 0.994; that for CAACATTAGG was 1.

With CCCTCTGTGT, the switch fluorescence ratio was found to be 1.36.

TTAACTATTG: the switch fluorescence ratio stood at 1.03. The figure for TTGGTAGGCG is 0.974; for GGGCAGTTCA it is 1.03; for GCCTATGGTT it is 1.13. The figure for AATTGATCGA is 1.06; for CAGGTCGGTC it is 1.01; for TGGTGCGAA it is 1.04.

Take TTAATAGGCA: the switch fluorescence ratio was 0.996. The figure for GATTAGATG is 0.951; for TGAGGGTCGT it is 0.985; for TACCCAGCC it is 1.14.

As for CTTCAGTTTC, the switch fluorescence ratio came to 0.997. The value for GGAGTCCAGT was 0.989; that for TTTTTCACAT was 0.974; that for CTACCGTCTG was 1.01. The figure for TGTCCACTTA is 1.01; for AGATAGTCAC it is 1.01.

GTTATTTCTC: the switch fluorescence ratio was 1. The value for AGGAATTCAT was 0.94; that for AAGCCAGGAT was 1; that for TCCAGAGGTC was 1.02. With GGGGTTACC, the switch fluorescence ratio turned out to be 0.998. Turning to ACACAGTTAC, the switch fluorescence ratio amounted to 1.21.

Consider TTACTAGTTC, for which the switch fluorescence ratio stood at 0.989. The figure for CCAAAGTTGC is 2.44. The figure for CAGACCCTTC is 1.07; for ATTTGTCATT it is 1.01; for CCACCCTCCA it is 1.22. The value for GTACAAACGT was 1.12. On to ACAGCTGGA, for which the switch fluorescence ratio came to 1.01. For CGAGTTAGTC, the switch fluorescence ratio was found to be 1. The figure for AGTTACCCAC is 1.56; for ACCGGTTGT it is 1.01. Regarding TTGTCCTTGG, the switch fluorescence ratio came out at 1.04.

Turning to AGGATCAGAT, the switch fluorescence ratio worked out at 0.95. The value for ATGGTGATCT was 1.01.

Take TTCTCTATCG: the switch fluorescence ratio turned out to be 0.954. The value for TTGCCAGTAG was 0.993; that for GCACACCATG was 1.08; that for TCACGTGAGA was 1.04. The figure for AAGTGCCATT is 1.01; for CCCGAACGGT it is 0.99; for TAACTCCTGG it is 1. The value for ATGCTTGCTT was 1.05; that for AGTACGTCCC was 1.04; that for GTCGAAGCC was 0.997. As to TAGTATGGG, the switch fluorescence ratio is 0.995. Take TAACCCTGCT: the switch fluorescence ratio was 0.978.

On to GTTGTCGAT, for which the switch fluorescence ratio was determined as 1.01. The value for GAATTTGGCT was 0.967; that for ATAAGCGGCT was 1.01. The value for CGAAATATTC was 1.23; that for GAGGACCAGC was 1.04.

On to ATTGGCATAC, for which the switch fluorescence ratio worked out at 2.28. For the sequence TAGAGCCGAT, the switch fluorescence ratio was 1.01. The figure for CAGCGATCAC is 3.57. The figure for TTTGGTCAAT is 0.999. The figure for GTAGTCCGGT is 0.996. As for GGTATAGGCG, the switch fluorescence ratio was 0.849.

Consider TAAGCAATTG, for which the switch fluorescence ratio is 0.994. Turning to TCGCTGCGAG, the switch fluorescence ratio is 1.05. The value for GATTCGTGCC was 0.991; that for ACTAAGATCA was 1.03; that for GGTAGGGGCC was 0.942. The value for TCCGTGGCGA was 1.73; that for ACATGCAAGA was 1.06. The figure for CAAACGGGAC is 1.32.
